40 compounds from the antibiotic and cytotoxicity screens of Wong et al. (2023) can be followed below.

The list shows a part of the results.

The experiment relates to S. aureus RN4220. Put plainly: growth inhibition call (relative growth <= 0.2). To be noted: 50 µM.
Consider `C[C@@H]1CCCCO[C@@H](CN(C)Cc2ccncc2)[C@@H](C)CN([C@H](C)CO)C(=O)c2cc(NC(=O)Cc3ccccc3)ccc2O1`, for which the growth inhibition call is “inactive”.

Turning to `C[C@@H]1CN([C@@H](C)CO)C(=O)c2ccccc2-c2ccccc2CO[C@H]1CN(C)C(=O)Nc1ccc(-c2ccccc2)cc1`, the growth inhibition call was “inactive”.

`CC1=CC(C)(C)N(C(=O)/C=C/c2ccccc2)c2ccc(C)cc21`: the growth inhibition call is “inactive”.

As to `C[C@@H]1CCCCO[C@H](CN(C)Cc2ccccc2)[C@H](C)CN([C@@H](C)CO)C(=O)c2cc(NC(=O)Cc3ccccc3)ccc2O1`, the growth inhibition call is “inactive”.

Take `CC[C@H]1OC(=O)C[C@@H](O)[C@H](C)[C@@H](O[C@@H]2O[C@H](C)[C@@H](O[C@H]3C[C@@](C)(O)[C@@H](O)[C@H](C)O3)[C@H](N(C)C)[C@H]2O)[C@@H](CC=O)C[C@@H](C)C(=O)/C=C/C(C)=C/[C@@H]1CO[C@@H]1O[C@H](C)[C@@H](O)[C@@H](OC)[C@H]1OC`: the growth inhibition call is “active”.

For the compound `CS(=O)(=O)N1C[C@@H]2OCC[C@@H]2[C@H](C(=O)NCc2cccnc2)C1`, the growth inhibition call was “inactive”.

As for `C[C@H](CO)N1C[C@H](C)[C@H](CN(C)Cc2ccc(C(=O)O)cc2)Oc2ccc(NS(=O)(=O)c3ccccc3)cc2CC1=O`, the growth inhibition call was “inactive”.

For the compound `O=C(C[C@@H]1CC[C@H]2[C@@H](COC[C@H](O)CN2S(=O)(=O)c2ccc(F)cc2)O1)NCc1ccc(Cl)c(Cl)c1`, the growth inhibition call is “inactive”.

`COC[C@@H](C)NC(=O)C(=O)NC1CC1`: the growth inhibition call is “inactive”.

`NC(=O)CSc1ncn(-c2ccccc2)n1`: the growth inhibition call is “inactive”.

Take `Cc1ccc(S(=O)(=O)Nc2ccc3c(c2)C(=O)N([C@@H](C)CO)C[C@H](C)[C@@H](CN(C)Cc2ccc(C(=O)O)cc2)OCCCC[C@H](C)O3)cc1`: the growth inhibition call was “inactive”.

For the compound `COc1ccc(CN(C)C[C@@H]2Oc3ccc(NC(=O)Nc4cccc5ccccc45)cc3C(=O)N([C@@H](C)CO)C[C@@H]2C)cc1`, the growth inhibition call is “inactive”.

`Cc1noc(C)c1S(=O)(=O)Nc1ccc2c(c1)C(=O)N([C@@H](C)CO)C[C@H](C)[C@@H](CN(C)S(=O)(=O)c1cccs1)O2`: the growth inhibition call was “inactive”.

On to `CS(=O)(=O)Nc1ccc2c(c1)[C@H]1C[C@@H](CC(=O)NCc3ccc(-c4ccccc4)cc3)O[C@@H](CO)[C@H]1O2`, for which the growth inhibition call is “inactive”.

With `COCCN1C[C@@H]2CN(C(=O)c3cnn(C)c3)C[C@H]2C1=O`, the growth inhibition call was “inactive”.

On to `COc1ccc(CN(C)C[C@@H]2Oc3ccc(NC(=O)Cn4cnnn4)cc3CC(=O)N([C@@H](C)CO)C[C@@H]2C)cc1`, for which the growth inhibition call was “inactive”.

Turning to `Cc1scc2c1N(C(=O)CN1CCN(C)CC1)c1ccccc1NC2=O.Cl`, the growth inhibition call is “active”.

`C[C@H](CO)N1C[C@H](C)[C@H](CN(C)CC2CCCCC2)Oc2ccc(NC(=O)CCN3CCOCC3)cc2CC1=O`: the growth inhibition call was “inactive”.

As to `C[C@@H]1CN([C@@H](C)CO)S(=O)(=O)c2ccc(C#CC3(O)CCCC3)cc2O[C@H]1CN(C)C(=O)Nc1ccccc1`, the growth inhibition call is “inactive”.

In the case of `COc1ccc2c3c([nH]c2c1)[C@H](CO)N(C[C@]13CN(Cc2cc(on2)-c2ccccc2)C1)C(=O)Nc1ccc(cc1)F`, the growth inhibition call is “inactive”.

`C[C@@H]1CCCCO[C@@H](CN(C)C(=O)Nc2ccc3c(c2)OCO3)[C@@H](C)CN([C@H](C)CO)C(=O)c2cc(NC(=O)c3ccncc3)ccc2O1`: the growth inhibition call is “inactive”.

For `C[C@@H]1CCCCO[C@H](CN(C)C(=O)C2CCCCC2)[C@H](C)CN([C@@H](C)CO)C(=O)c2cc(NC(=O)Nc3cccc4ccccc34)ccc2O1`, the growth inhibition call is “inactive”.

As to `COc1ccc(CN(C)C[C@@H]2OCCCC[C@H](C)Oc3ccc(NC(=O)Nc4ccc5c(c4)OCO5)cc3C(=O)N([C@H](C)CO)C[C@@H]2C)cc1`, the growth inhibition call was “inactive”.

In the case of `C[C@H](CO)N1C[C@H](C)[C@H](CN(C)Cc2ccc(Cl)c(Cl)c2)Oc2ccc(NC(=O)NC3CCCCC3)cc2CC1=O`, the growth inhibition call was “inactive”.

On to `CC(C)NC(=O)N[C@H]1CC[C@H](CCN)O[C@H]1CO`, for which the growth inhibition call was “inactive”.

Consider `C[C@@H]1CN([C@@H](C)CO)C(=O)c2cccc(NC(=O)c3ccc(-c4nccs4)cc3)c2O[C@H]1CN(C)C(=O)Nc1ccc(F)cc1`, for which the growth inhibition call was “inactive”.

Take `C[C@H]1CN([C@@H](C)CO)C(=O)c2cc(-c3ccncc3)cnc2O[C@@H]1CN(C)S(=O)(=O)c1ccc(F)cc1`: the growth inhibition call is “inactive”.

Turning to `O=C(N[C@@H]1CC[C@@H](CCn2cc(C3(O)CCCC3)nn2)O[C@@H]1CO)C1CCOCC1`, the growth inhibition call is “inactive”.

Consider `CC(C)NC(=O)N(C)C[C@H]1Oc2ccc(NS(=O)(=O)c3cccs3)cc2CC(=O)N([C@@H](C)CO)C[C@H]1C`, for which the growth inhibition call is “inactive”.

Regarding `COc1cccc(S(=O)(=O)N(C)C[C@H]2OCc3cn(nn3)CCCC(=O)N([C@@H](C)CO)C[C@H]2C)c1`, the growth inhibition call was “inactive”.

For the compound `COc1ccc(S(=O)(=O)Nc2cccc3c2O[C@@H](CN(C)Cc2ccc(Oc4ccccc4)cc2)[C@@H](C)CN([C@@H](C)CO)C3=O)cc1`, the growth inhibition call was “inactive”.

For `CC(C)NC(=O)Nc1ccc2c(c1)C(=O)N([C@@H](C)CO)C[C@@H](C)[C@@H](CN(C)S(=O)(=O)c1ccccc1)O2`, the growth inhibition call was “inactive”.

In the case of `C[C@@H]1CN([C@@H](C)CO)C(=O)c2cccc(NC(=O)c3ccc(-c4nccs4)cc3)c2O[C@@H]1CN(C)C(=O)Nc1ccc(F)cc1`, the growth inhibition call was “inactive”.

Turning to `COc1ccc(CN(C)C[C@H]2Oc3ccc(NC(=O)C4CC4)cc3CC(=O)N([C@H](C)CO)C[C@H]2C)cc1`, the growth inhibition call is “inactive”.

Take `COc1ccc(CN(C)C[C@H]2Oc3c(NC(=O)C4CCOCC4)cccc3C(=O)N([C@@H](C)CO)C[C@@H]2C)cc1`: the growth inhibition call is “inactive”.

Turning to `CS(=O)(=O)NCc1ccsc1`, the growth inhibition call was “inactive”.

`O=C(C[C@@H]1C=C[C@@H](NC(=O)Cc2ccccn2)[C@@H](CO)O1)NCCCN1CCOCC1`: the growth inhibition call was “inactive”.

As for `C[C@H](CO)N1C[C@H](C)[C@H](CN(C)Cc2ccc(Cl)c(Cl)c2)OCCCC[C@H](C)Oc2ccc(NS(C)(=O)=O)cc2C1=O`, the growth inhibition call was “inactive”.

In the case of `C[C@H]1CN([C@@H](C)CO)C(=O)c2cccc(NC(=O)Nc3ccc(C(F)(F)F)cc3)c2O[C@@H]1CN(C)Cc1ccncc1`, the growth inhibition call was “inactive”.

For `CC(C)CC#Cc1ccc2c(c1)O[C@H](CN(C)C(=O)c1cnccn1)[C@@H](C)CN([C@H](C)CO)S2(=O)=O`, the growth inhibition call was “inactive”.
